Measured values from PubChem BioAssay AID1159614 (National Center for Advancing Translational Sciences (NCATS), 2016).
Screen size: about 45,000 compounds; about 65 (0.1%) were called active. The call rests on the fitted dose curve; in most records, active means well fitted activation curve with a large enough effect; inconclusive means small, poorly fitted or top-dose-only effect; inactive means no such curve, though single readings can be large or run the other way. The list shows a part of the results.

Biological target: Galactocerebrosidase (Homo sapiens) (UniProt P54803)
Sequence of UniProt P54803 (P54803 whole entry, looked up): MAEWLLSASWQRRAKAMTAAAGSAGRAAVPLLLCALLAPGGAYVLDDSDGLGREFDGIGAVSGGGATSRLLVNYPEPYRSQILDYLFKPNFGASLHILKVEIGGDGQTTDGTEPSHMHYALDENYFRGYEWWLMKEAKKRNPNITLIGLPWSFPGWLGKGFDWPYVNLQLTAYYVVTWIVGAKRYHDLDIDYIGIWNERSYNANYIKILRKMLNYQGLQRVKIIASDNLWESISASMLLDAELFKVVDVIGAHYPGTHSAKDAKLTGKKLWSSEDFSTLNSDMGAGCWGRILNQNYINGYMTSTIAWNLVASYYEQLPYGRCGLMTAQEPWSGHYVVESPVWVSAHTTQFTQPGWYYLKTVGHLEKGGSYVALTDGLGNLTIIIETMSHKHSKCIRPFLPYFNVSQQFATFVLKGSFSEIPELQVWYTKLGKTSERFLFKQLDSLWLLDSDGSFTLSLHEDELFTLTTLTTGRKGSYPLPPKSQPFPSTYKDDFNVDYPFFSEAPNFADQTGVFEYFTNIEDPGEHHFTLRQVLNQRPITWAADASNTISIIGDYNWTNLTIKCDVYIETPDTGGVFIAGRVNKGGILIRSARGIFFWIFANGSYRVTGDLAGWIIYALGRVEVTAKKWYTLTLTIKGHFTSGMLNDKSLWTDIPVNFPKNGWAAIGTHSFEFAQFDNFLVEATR
Assay: A Novel Cell-Based Assay to Identify Small Molecules for B -Galactocerebrosidase; further: nearly all actives have a fitted effect of over 65% in size; on activation: 0% is about no effect
Conditions: 145M-Twi-hGALC-G270D cells (Twitcher mouse brain line with human GALC G270D), HMU-beta-Gal fluorescence, 48 h; activation: at the top concentration
Procedure, shortened: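 Brain-derived Twitcher mouse 145M-Twi cells stably expressing human GALC-G270D or wild-type GALC, treated live, then residual GALC activity read by fluorescence of HMU-b-Gal substrate (0.1 mM final) in citrate-phosphate buffer pH 5.2 with sodium taurocholate. Signal increase indicates enhancement.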
Potency means the concentration at half of the fitted maximal effect.

SMILES | activation | Potency
Cc1ncc(CNC(=O)N(CCCl)N=O)c(N)n1 | inactive: -24.4% | –
Cc1cc(NC(=O)c2cccn(Cc3ccccc3)c2=O)no1 | inactive: -14.4% | –
CC(C)(C)NCC(O)c1cc(Cl)c(N)c(C(F)(F)F)c1 (stereo unspecified) | inactive: -7.57% | –
CCCC1=Nc2cc(C(=O)NC3CCC(C)CC3)ccc2Sc2ccccc21 (stereo unspecified) | inactive: -15.3% | –
O=C(CN1C(=O)CN=C(c2ccccc2)c2ccccc21)Nc1cccc(C(F)(F)F)c1 | inactive: -7.02% | –
Cc1cccc2sc(NC(=O)c3cccn(Cc4ccccc4)c3=O)nc12 | inactive: -11% | –
Nc1c(C(=O)Nc2cccc(Br)c2)sc2nc3c(cc12)N1CCC3CC1 | inactive: -7.56% | –
COc1ccc2c3c1O[C@H]1[C@@H](O)C=C[C@H]4[C@@H](C2)N(C)CC[C@@]341 | inactive: -6.17% [at 114 µM] | –
CCC1(c2ccccc2)CCC(=O)NC1=O (stereo unspecified) | inactive: -16.8% | –
c1cc2ccc3cccc4ccc(c1)c2c34 | inactive: -15.8% [at 129 µM] | –
c1ccc(N2CCNCC2)cc1 | inactive: -15.2% | –
Oc1ccc(Cl)cc1Cc1ccccc1 | inactive | –
CCCCC(CC)COC(=O)c1ccccc1C(=O)O (stereo unspecified) | inactive: -17.3% [at 114 µM] | –
CCCCC(CC)COC(=O)c1ccccc1C(=O)OCC(CC)CCCC (stereo unspecified) | inactive: -10.8% [at 114 µM] | –
CCOc1ccc(CN(CCc2ccc3c(c2)OCO3)Cc2cccc(C)c2)cc1 | inactive: -27.5% | –
Oc1cccc2cccnc12 | inactive | –
Cc1cc(OCC(=O)N2CCN(CCc3ccccn3)CC2)cc(C)c1Cl | inactive: -16.9% | –
CCN(CC)C(=O)c1ccc(NC(=O)CCn2nc(-c3ccc(C)cc3)c3ccccc3c2=O)cc1 | inactive: -42% | –
COc1ccc(C(=O)NCCn2cc(SC(C)c3ccccc3)c3ccccc32)cc1OC (stereo unspecified) | inactive: -33% | –

SMILES | activation | Potency
Cc1cccc(C2CC(=O)Oc3c2c(=O)oc2ccccc32)c1 (stereo unspecified) | inactive: 2.11% | –
COc1ccc(CN2CCN(C(=O)COc3ccccc3)CC2)c(OC)c1 | inactive: 4.23% | –
COc1cc(CC(C)N)cc(OC)c1OC (stereo unspecified) | inactive: 6.35% [at 129 µM] | –
CN1C[C@@H](NS(=O)(=O)N(C)C)C[C@@H]2c3cccc4c3c(cn4C)C[C@H]21 | inactive: -16.5% | –
Cc1ccc(Cl)c(O)c1 | inactive: -14.5% | –
CCN(CC)C(=O)c1ccc(NC(=O)CCn2nc(-c3ccc(Cl)cc3)c3ccccc3c2=O)cc1 | inactive: -16.5% | –
COc1ccc2[nH]cc(CCN(C(C)C)C(C)C)c2c1 | inactive: -7.89% [at 129 µM] | –
C[C@]12CC[C@H]3[C@@H](CCC4=CC(=O)CC[C@@H]43)[C@@H]1CC[C@@H]2OC(=O)CCc1ccccc1 | inactive: -18.4% | –
O=C1NCN(c2ccccc2)C12CCN(CC1COc3ccccc3O1)CC2 (stereo unspecified) | inactive: -12.7% | –
Clc1ccc(CO/N=C(\Cn2ccnc2)c2ccc(Cl)cc2Cl)c(Cl)c1 | inactive: -4.69% | –
c1ccc2nc(N3CCNCC3)ccc2c1 | inactive: -2.06% | –
COC(=O)c1ccc(NC(=O)c2cccn(Cc3ccccc3C)c2=O)cc1 | inactive: -10.8% | –
CC(C)(N)Cc1ccccc1Cl | inactive: -9.48% | –
O=S1(=O)N(Cc2ccccc2)CCCN1Cc1ccc(F)cc1Cl | inactive: -2.56% | –
O=c1oc2ccccc2c(O)c1C(CC(O)c1ccc(-c2ccc(Br)cc2)cc1)c1ccccc1 (stereo unspecified) | inactive: -19.5% | –
Cc1ccc(OCC(=O)Nc2ccc(Cl)cc2C(=O)c2ccccc2)cc1 | inactive: 5.52% | –
OCCCBr | inactive: -17.4% [at 114 µM] | –
CC(CCc1ccccc1)NC(C)C(O)c1ccc(O)cc1 (stereo unspecified) | inactive: -9.38% | –
CCCOC(=O)Cc1ccc(OCC(=O)N(CC)CC)c(OC)c1 | inactive: -19% | –

SMILES | activation | Potency
O=C(Nc1ccc(Br)cc1C(=O)c1ccccc1)c1ccccc1 | inactive: -12.2% | –
CCCOC(=O)c1cncn1C(C)c1ccccc1 (stereo unspecified) | inactive: -11.8% | –
CCCC[N+]1(C)[C@@H]2CC(OC(=O)[C@H](CO)c3ccccc3)C[C@H]1[C@@H]1O[C@@H]12 (stereo partly specified) | inactive: -6.11% | –
CCOC(=O)c1ccc(NC(=O)c2sc3nc4c(cc3c2N)N2CCC4CC2)cc1 | – | active: 14.1 µM
CN(C)CCc1c[nH]c2ccc(O)cc12 | inactive: -7.95% [at 114 µM] | –
O=C(CCCCCCCCC#CI)Oc1ccccc1 | inactive: -12.6% | –
COc1ccc(OCC(=O)N2CCN(Cc3cccc(OC)c3OC)CC2)cc1 | inactive: -24% | –
NNc1ccccc1 | inactive: -12.4% | –
NCCc1cc(O)c(O)cc1O | inactive: -18.7% | –
Oc1c(Br)cc(Br)cc1Br | inactive: -11.8% | –
Cc1cc(C)cc(OCC(=O)Nc2ccc(Cl)cc2C(=O)c2ccccc2)c1 | inactive: -1.01% | –
O=C(C1CCN(S(=O)(=O)c2ccc(Br)s2)CC1)N1CCN(c2cccc(C(F)(F)F)c2)CC1 | inactive: -38.4% | –
Clc1ccc(CSC(Cn2ccnc2)c2ccc(Cl)cc2Cl)cc1 (stereo unspecified) | inactive: 5.31% | –
Clc1cccc(N2CCNCC2)c1 | inactive: -17.6% | –
CCCN(CCC)C(=O)Cc1c(-c2ccc(Cl)cc2)nc2ccc(Cl)cn12 | inactive: -14.1% | –
COc1ccccc1NC(=O)N(Cc1ccc2c(c1)OCO2)C1CCN(Cc2ccccc2)CC1 | inactive: -11.8% | –
COc1ccc(N2CCN(c3ncnc4c3nc3n4CCCCC3)CC2)cc1 | inactive: -0.0405% | –
CCN(CC)CCOC(=O)C(C)(c1ccccc1)c1ccccc1 | inactive: -18.9% | –
